# Laboratory results: PubChem BioAssay AID686979 (National Center for Advancing Translational Sciences (NCATS), 2013)
# The whole screen tested about 420,000 compounds, of which about 50,000 (12%) were called active. The shares of active, inactive and inconclusive entries below differ from those in the screen. Calls come from the whole dose curve; as a rule, active = well fitted inhibition curve with a large enough effect; inconclusive = small, poorly fitted or top-dose-only effect; inactive = flat fitted curve, though single readings scatter. No potency is given beside an inconclusive call; the fits are too rough.
# Test: qHTS for Inhibitors of human tyrosyl-DNA phosphodiesterase 1 (TDP1): qHTS in cells in presence of CPT; note: nearly all actives have a fitted effect of over 55% in size
# Details: chicken DT40 Tdp1-/-;hTDP1 cells + 20 nM CPT, ATP luminescence, 48 h; activity change, negative = growth inhibition: at 46.2 µM (top of the series)
# Procedure, shortened: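 Chicken DT40 Tdp1-/- cells stably complemented with human TDP1 were seeded at 400 cells/well in medium containing 20 nM camptothecin, exposed to pin-transferred compounds, and grown at 37 °C for at least 48 hr. Viability was read as ATP luminescence.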
# % is set by controls: 0 for no effect and ±100 for the full control effect; potency is the fitted concentration of half-maximal effect; tags give direction and shape of the fitted curve.
SMILES,Potency,"activity change, negative = growth inhibition"
CC1=NN(C(=O)c2ccccc2)C(O)(c2ccc(Br)cc2)C1 (centres undefined),active: 5.8 µM,–
COc1ccccc1-c1nnc(NC(=O)CCS(=O)(=O)c2ccc(F)cc2)o1,active: 8.2 µM,–
C=Cc1ccc(C(=O)NC2CCCN(Cc3ccccc3F)C2)cc1 (centres undefined),"inconclusive [inhibitor, single point]",–
CC(C)C[C@@H](CO)N(Cc1ccccc1)S(=O)(=O)N(Cc1ccccc1)[C@@H](CO)CC(C)C,active: 16.4 µM,–
O=C(c1ccccc1)N(c1ccccc1)c1nccc2ccccc12,inactive,–
Cc1cc(Cl)cc(C)c1OCCCCn1ccnc1,"inconclusive [inhibitor, partial curve]",–
CCn1cc(C(=O)N(C)Cc2ccccc2)c(=O)c2cc(S(=O)(=O)N3CCCCC3)ccc21,inactive,–
C[C@H](NC(=O)OC(C)(C)C)C(=O)N/N=C/c1cccc2nccnc12,inactive,–
Cc1cccc(N2CCN(C(=O)Cn3nc(C)c4sc5ccccc5c4c3=O)CC2C)c1 (centres undefined),"inconclusive [inhibitor, single point]",–
COc1ccc(-c2onc(C)c2C)cc1S(=O)(=O)NC1CCCCC1,"inconclusive [inhibitor, single point]",–
Cc1ccc(N(C(=O)NC2CCCCC2)C2=NCCCCC2)cc1,"inconclusive [inhibitor, single point]",–
CCn1ncc(C2=NOC(C(=O)Nc3cccnc3)C2)c1C (centres undefined),inactive,–
Cc1cccc(N2CCN(c3c(CN4CCCC4)c(=O)oc4ccccc34)CC2)c1C,inactive,–
c1ccc(-c2nnn(C34CC5CC(CC(C5)C3)C4)n2)cc1,–,inconclusive: -31% [inhibitor]
COc1cccc(N/C=C/c2onc(C)c2[N+](=O)[O-])c1,"inconclusive [inhibitor, single point]",–
COc1ccc(S(=O)(=O)N2CCCCC2)cc1NC(=O)CCCNC(=O)c1ccc(Cl)cc1,"inconclusive [inhibitor, single point]",–
CCOC(=O)c1cccc(NC(=O)CCc2c(C)nc3c4cccnc4nn3c2C)c1,"inconclusive [inhibitor, partial curve, poor fit]",–
CC(C)CCN1C(=O)CSCC1(C)C(=O)Nc1ccc2c(c1)OCCO2 (centres undefined),inactive,–
COc1ccc(NC(=O)C2CCN(S(=O)(=O)c3ccc4c(c3)NC(=O)C(C)S4)CC2)cc1 (centres undefined),"inconclusive [inhibitor, partial curve]",–
O=C(CSc1nnnn1C1CCCC1)Nc1ccccc1F,inactive,–
O=C(c1ccccc1)N1CCC(c2nc(-c3ccc(S(=O)(=O)NCC4CCCO4)cc3)no2)CC1 (centres undefined),active: 10.3 µM,–
Nc1cc2c(cc1Br)[nH]c(=O)c1ccccc12,"inconclusive [inhibitor, single point]",–
O=C(Nc1cccn2nc(COCCO)nc12)C(c1ccccc1)c1ccccc1,inactive,–

SMILES,Potency,"activity change, negative = growth inhibition"
C=CCOC(=O)/C=C/C(=O)NC(N)=O,active: 10.3 µM,–
O=C(c1ccc(Cn2c(=S)[nH]c3ccc(Br)cc3c2=O)cc1)N1CCN(C2CCCCC2)CC1,"inconclusive [inhibitor, single point]",–
Cc1ccc2nc(-c3ccc(C)o3)c(Nc3ccc4c(c3)OCO4)n2c1,"inconclusive [inhibitor, single point]",–
COc1ccccc1CN(Cc1cc2c(C)ccc(C)c2[nH]c1=O)Cc1nnnn1Cc1ccco1,active: 23.1 µM,–
Cc1c(C(=O)N2CCOCC2)oc2c1-c1nn(CC(=O)NCc3ccccc3)cc1CC2,"inconclusive [inhibitor, single point]",–
Cc1cccc(N2C(=O)C(Cl)=C(Nc3c(C)n(C)n(-c4ccccc4)c3=O)C2=O)c1C,"inconclusive [inhibitor, single point]",–
CCOC(=O)C1CCCN(C(=O)C2CCN(S(=O)(=O)c3ccc(Cl)c(C(F)(F)F)c3)CC2)C1 (centres undefined),"inconclusive [inhibitor, single point]",–
CC(C)(CNS(=O)(=O)c1ccc(Cl)cc1)N1CCCCC1,inactive,–
O=S(=O)(c1ccc(Cl)cc1)N1CCN(CCc2ccncc2)CC1,"inconclusive [inhibitor, partial curve]",–
Cc1ccc(OS(=O)(=O)c2ccc(-c3csc(C)n3)s2)c(C)c1,"inconclusive [inhibitor, partial curve]",–
Cc1ccc(C2=NN(Cc3nnc(-c4ccccc4)o3)C(=O)SC2)cc1,"inconclusive [inhibitor, single point]",–
C/C(=N\NC(=O)C(=O)N/N=C(\C)c1cccc(O)c1)c1cccc(O)c1,inactive,–
COc1ccccc1Cn1c(CNS(=O)(=O)c2c(C)cc(C)cc2C)nc2cccnc21,active: 16.4 µM,–
c1ccc(-c2nc3c4ccccc4ccn3c2CN2CCCCC2)cc1,"inconclusive [inhibitor, single point]",–
O=S(=O)(c1ccc2c(c1)OCCO2)N1CCN(c2nc(-c3ccccc3)nc3ccccc23)CC1,"inconclusive [inhibitor, single point]",–
Cc1ccc2c(c1)N(CC(=O)NCc1cccc(Cl)c1)C(=O)c1cccnc1O2,"inconclusive [inhibitor, single point]",–
O=C(CCNC(=O)c1ccccc1)Nc1cccnc1,"inconclusive [inhibitor, single point]",–
CCn1cc(S(=O)(=O)c2ccccc2)c(=O)c2cc(F)c(N3CCCCCC3)cc21,"inconclusive [inhibitor, single point]",–
CC(=O)Nc1ccc(C(=O)OCc2ccc(F)cc2)cc1,"inconclusive [inhibitor, single point]",–
Cc1ccc(-c2nnc(SCc3ccc(C#N)cc3)n2Cc2ccco2)cc1,active: 25.9 µM,–
Cc1ccc(NC(=O)Cc2nnc(SCC(=O)c3ccc(Br)cc3)n2C)cc1,"inconclusive [inhibitor, full curve, poor fit]",–
CCOC(=O)c1nnc(-c2cccs2)nc1Oc1ccccc1C(=O)OC,inactive,–
CN(C(=O)c1ccccn1)c1nnc(-c2ccccn2)s1,inactive,–

SMILES,Potency,"activity change, negative = growth inhibition"
CCn1cc([N+](=O)[O-])c(C(=O)Nc2c(C)nn(Cc3c(F)c(F)c(F)c(F)c3F)c2C)n1,"inconclusive [inhibitor, single point]",–
CC(=O)c1cccc(NC(=O)c2ccc3c(c2)CCN3S(=O)(=O)c2ccccc2)c1,active: 14.6 µM,–
CCN(C(=O)CN(C)Cc1cccc(Cl)c1Cl)c1c(N)n(Cc2ccccc2)c(=O)[nH]c1=O,"inconclusive [inhibitor, single point]",–
c1ccc2c(c1)oc1c(NCC3CCCO3)ncnc12 (centres undefined),"inconclusive [inhibitor, single point]",–
CCOCCCn1c(=N)c(S(=O)(=O)c2ccccc2)cc2c(=O)n3cc(C)ccc3nc21,"inconclusive [inhibitor, single point]",–
COc1ccc2nc(C)cc(SCC(=O)N/N=C/c3ccc(O)c(O)c3)c2c1,"inconclusive [inhibitor, partial curve]",–
S=C(NCCCN1CCOCC1)Nc1ccc(Cl)cc1,inactive,–
CCC(C)(C)n1nnnc1C(c1ccc(C)cc1)N1CCC(C)CC1 (centres undefined),active: 13 µM,–
O=C(COc1ccccc1F)NC12CC3CC(CC(C3)C1)C2,"inconclusive [inhibitor, single point]",–
Cc1cccc(NC(=O)CN2CCN(C(=O)CNC(=O)c3ccc(-c4ccccc4)cc3)CC2)c1C,active: 4.61 µM,–
Cc1cc(C(=O)N/N=C/c2cc(Cl)cc([N+](=O)[O-])c2O)c2ccccc2n1,"inconclusive [inhibitor, single point]",–
COc1ccc(Cl)cc1NC(=O)COC(=O)c1cc(C)oc1C,–,inconclusive: -32.6% [inhibitor]
Cc1ccc(NS(=O)(=O)c2ccc(C(=O)N3CCCC(C(F)(F)F)C3)cc2)cc1 (centres undefined),"inconclusive [inhibitor, single point]",–
CCCCC1=CC2=C(c3ccco3)C(=O)C(C)(OC(=O)c3ccc(OC)cc3)C(=O)C2=CN1Cc1ccc2c(c1)OCO2 (centres undefined),active: 9.2 µM,–
CC1(C)C(=O)Nc2ccccc2N1C(=O)COC(=O)c1ccc(Cl)c(S(=O)(=O)NCc2ccccc2)c1,"inconclusive [inhibitor, single point]",–
CCOc1ccc(NS(=O)(=O)c2ccc(C(=O)N(CC)CC(=O)NCc3cccs3)cc2)cc1,"inconclusive [inhibitor, partial curve]",–
COc1ccc(CN(CCC(C)C)S(=O)(=O)c2ccccc2Br)cc1,"inconclusive [inhibitor, single point]",–
O=[N+]([O-])c1cccc(/C=N/Nc2cc(N3CCOCC3)ncn2)c1,"inconclusive [inhibitor, partial curve]",–
NC(=S)N/N=C/c1c(O)ccc2ccccc12,active: 11.6 µM,–
CN1CCN(c2ccc(NC(=O)N3CCc4ccccc43)cc2)CC1,inactive,–
C=Cc1ccc(Cn2c(C(=O)O)c(CNCc3cc(OC)ccc3OC)c3ccc(C)cc32)cc1,"inconclusive [inhibitor, single point]",–
CC(C(=O)NCC1CCCCC1)N1CCN(S(=O)(=O)/C=C/c2ccccc2)CC1 (centres undefined),"inconclusive [inhibitor, full curve, poor fit]",–
CCSc1nc2sc3c(c2c(=O)n1-c1ccccc1)CCN(C(C)C)C3,active: 10.3 µM,–
